# PubChem BioAssay AID1347055 (National Center for Advancing Translational Sciences (NCATS), 2019)
# Screen size: about 54,000 compounds; about 120 (0.22%) were called active. The inconclusive results got no clear call from the source; some entries with a clear call stand among them for comparison. Calls come from the whole dose curve; as a rule, active = well fitted inhibition curve with a large enough effect; inconclusive = small, poorly fitted or top-dose-only effect, or effect the other way; inactive = flat fitted curve, though single readings scatter. No potency is given beside an inconclusive call; the fits are too rough.
# Molecular target: Fumarate hydratase, mitochondrial (Homo sapiens) (UniProt P07954)
# Test: Identification of activators of human fumarate hydratase by quantitative high-throughput screening; note: the screen sought activators but most active calls are inhibition curves; nearly all actives have a fitted effect of over 45% in size
# Details: FH coupled MDH/diaphorase resazurin fluorescence, 15 min; activity change, negative = inhibition: at 79.9 µM (top of the series)
# % is set by controls: 0 for no effect and ±100 for the full control effect; potency is the fitted concentration of half-maximal effect; tags give direction and shape of the fitted curve.
# UniProt P07954, sequence (P07954 whole entry, looked up): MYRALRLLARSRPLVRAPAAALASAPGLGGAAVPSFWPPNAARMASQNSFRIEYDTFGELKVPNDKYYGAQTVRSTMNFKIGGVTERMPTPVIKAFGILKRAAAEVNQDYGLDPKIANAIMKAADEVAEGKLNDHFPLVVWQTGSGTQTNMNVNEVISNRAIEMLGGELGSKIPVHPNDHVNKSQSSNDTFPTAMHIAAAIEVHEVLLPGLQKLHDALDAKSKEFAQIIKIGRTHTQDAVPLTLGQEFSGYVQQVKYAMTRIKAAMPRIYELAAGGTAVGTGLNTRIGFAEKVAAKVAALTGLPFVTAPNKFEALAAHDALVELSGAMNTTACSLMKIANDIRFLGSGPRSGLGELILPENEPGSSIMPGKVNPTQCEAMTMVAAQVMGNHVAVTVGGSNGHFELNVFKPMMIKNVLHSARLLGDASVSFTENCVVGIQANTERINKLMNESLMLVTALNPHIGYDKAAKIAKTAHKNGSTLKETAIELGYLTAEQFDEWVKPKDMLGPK
SMILES,"activity change, negative = inhibition",Potency
C[C@@H]1[C@H](O)[C@@H](C)C=CC=CC=CC=CC=CC=CC=C[C@H](O[C@@H]2O[C@H](C)[C@H](O)[C@H](N)[C@@H]2O)C[C@@H]2O[C@](O)(C[C@@H](O)C[C@@H](O)[C@H](O)CC[C@@H](O)C[C@@H](O)CC(=O)O[C@H]1C)C[C@H](O)[C@@H]2C(=O)O,inactive: -0.36% [at 53.3 µM],
C=CCn1c(=O)c2cnc(Nc3ccc(N4CCN(C)CC4)cc3)nc2n1-c1cccc(C(C)(C)O)n1,,"inconclusive [activator, partial curve, poor fit]"
C=C1C(=O)OC[C@@H]1C/C=C(\C)CC1CC(C)C(=O)O1 (stereo partly specified),inactive: 5.52%,
COc1ccc(Cn2c(CO)cnc2SCc2ccc(F)cc2)cc1,inactive: 2.91%,
N#CC1=C2SCN(C3CCCCC3)CN2C(=O)CC1c1c(F)cccc1Cl (stereo unspecified),inactive: -15.5%,
Cc1ccc2[nH]cc(C(c3ccccc3)c3ccc(C)s3)c2c1 (stereo unspecified),,"inconclusive [inhibitor, single point]"
CCCN(CCC)C(=O)C(CCC(=O)OCCCN1CCN(CCOC(=O)Cc2c(C)n(C(=O)c3ccc(Cl)cc3)c3ccc(OC)cc23)CC1)NC(=O)c1ccccc1 (stereo unspecified),,"inconclusive [inhibitor, single point]"
CCOC(=O)C1CCN(c2c(C(=O)c3ccc(OC)cc3)cnc3ccccc23)CC1,,"inconclusive [inhibitor, partial curve, poor fit]"
COc1ccc(CCNC(=O)c2nc(SCc3ccccc3F)ncc2Cl)cc1OC,,"inconclusive [inhibitor, partial curve, poor fit]"
COc1ccc(-c2noc(N3CCC(C(=O)N4CCN(c5ccccc5F)CC4)CC3)n2)cc1,inactive: -6.88%,
CCOC(=O)c1ccc(-n2c(CCC(=O)O)ccc2-c2ccc(Br)cc2)cc1,,"inconclusive [inhibitor, single point]"
O=C(NCc1cccs1)c1ccc(Cn2c(SCc3ccccc3)nc3cccnc32)cc1,inactive: -14.7%,
COc1ccc(CC(=O)Nc2sc3c(c2C(=O)Nc2cccc(Cl)c2)CCCCC3)cc1,,"inconclusive [inhibitor, partial curve]"
O=C(Cn1cc(SCc2ccc(C(F)(F)F)cc2)c2ccccc21)N1CCOCC1,,"inconclusive [inhibitor, partial curve, poor fit]"
CC(C)(C)OC(=O)N1CCC(c2c(C(=O)Nc3ccc4c(c3)OCCO4)cnn2-c2ccc(Cl)cc2)CC1,,"inconclusive [inhibitor, single point]"
COc1cccc(Nc2ccc3cc(S(=O)(=O)N4CCC(C)CC4)ccc3n2)c1,,"inconclusive [inhibitor, single point]"
Cc1ccc(OCC(=O)Nc2cccc(-c3nc4ccccc4s3)c2)cc1,,"inconclusive [inhibitor, partial curve, poor fit]"
c1cn2cc(-c3ccc4cn[nH]c4c3)nc(Nc3ccc(N4CCOCC4)cc3)c2n1,inactive: -5.52%,
C/C=C/C=C/C(CC(=O)O)Nc1ccc(C=O)cc1 (stereo unspecified),inactive: -1.43%,
COc1ccc2c(c1)CCc1c(C(=O)Nc3c(C)nn(Cc4ccccc4C)c3C)noc1-2,,"inconclusive [inhibitor, partial curve, poor fit]"
CC(CCC1C(C(=O)O)=CC(=O)CC1(C)C)O[C@@H]1O[C@H](CO)[C@@H](O)[C@H](O)[C@H]1O (stereo partly specified),inactive: -0.319% [at 53.3 µM],

SMILES,"activity change, negative = inhibition",Potency
O=C(O)c1ccc2nc(-c3cc4cccc(O)c4oc3=O)[nH]c2c1,,active: 22.4 µM
COc1ccccc1Cn1cc(C(=O)c2ccc(C)cc2)c(=O)c2cc(C)ccc21,,"inconclusive [inhibitor, partial curve, poor fit]"
CCOC(=O)c1c(C)[nH]c(C)c1S(=O)(=O)N1CCCC(C(=O)Nc2ccc(C)cn2)C1 (stereo unspecified),,"inconclusive [inhibitor, full curve, poor fit]"
CCOc1ccc(Nc2ncnc3c2nc2n3CCCC2)cc1,inactive: -6.28%,
CC[C@H]1CN(c2nc(N)c(C(N)=O)nc2Cl)CCN1C1CCN(Cc2ccc(Cl)cc2)CC1,inactive: -0.351%,
COc1ccc(OC)c(CNC(=O)c2c3c(nc4ccccc24)C(=O)N(C2CCCCC2)C3)c1,inactive: -6.19%,
CC(C)(C(=O)NCC(F)(F)C(F)(F)F)C(=O)N[C@@H]1C(=O)Nc2ccccc2-c2ccccc21,inactive: -7.08% [at 53.3 µM],
O=C(O[C@@H]1Cc2c(O)cc(O)cc2O[C@H]1c1cc(O)c(O)c(O)c1)c1cc(O)c(O)c(O)c1,,"inconclusive [inhibitor, partial curve, poor fit]"
Brc1ccc(-c2nc3ccccn3c2Nc2ccc3c(c2)OCCO3)o1,,"inconclusive [inhibitor, partial curve, poor fit]"
Cc1ccc(-n2c3nc(=O)[nH]c(=O)c-3cc3c(C)nn(-c4ccccc4)c32)cc1Cl,,"inconclusive [inhibitor, partial curve]"
COCCCn1c(=N)c(C(=O)NCc2ccco2)cc2c(=O)n3ccccc3nc21,inactive: 2.42%,
CCOC(=O)c1c(NC(=O)CSc2cn(CCNC(=O)c3ccc(OC)c(OC)c3)c3ccccc23)sc2c1CCCC2,,"inconclusive [inhibitor, partial curve, poor fit]"
CCOC(=O)c1ccc(N2C(=O)c3[nH]nc(-c4ccc(OC)cc4)c3C2c2ccccc2Cl)cc1 (stereo unspecified),inactive: -23%,
CCOc1ccc(S(=O)(=O)Nc2ccc3oc(C)c(C(=O)OC(C)C)c3c2)cc1,,"inconclusive [inhibitor, partial curve]"
Cc1nn(C)c2c1c(C(F)(F)F)cc(=O)n2CC(=O)N1CCCCC1,,"inconclusive [inhibitor, single point]"
Cc1ccc2c(c1)N(S(=O)(=O)c1cc(-c3onc(C)c3C)ccc1C)CCO2,,"inconclusive [inhibitor, partial curve]"
O=C(CS(=O)(=O)c1cccc2nsnc12)N1CCN(c2cccc(C(F)(F)F)c2)CC1,inactive: -8.26%,
O=C1NC(=O)C(=Cc2ccc3nccc(-c4ccncc4)c3c2)S1,,"inconclusive [inhibitor, partial curve]"
CSc1ccc(CCNC(=O)c2ccc(-c3nc(COc4ccc(C)cc4)c(C)o3)cc2)cc1,,"inconclusive [activator, partial curve, poor fit]"
CCn1cc(C(=O)N2CCN(c3cc(C)ccc3C)CC2)c(=O)c2cc(S(=O)(=O)N3CCCCC3)ccc21,,"inconclusive [inhibitor, partial curve, poor fit]"
Cc1ccc(Cl)cc1-n1ncc2c(NCCCc3ccccc3)ncnc21,,"inconclusive [inhibitor, single point]"

SMILES,"activity change, negative = inhibition",Potency
CCOc1ccc(N2C(=O)c3n[nH]c(-c4cccs4)c3C2c2cccc(F)c2)cc1 (stereo unspecified),,"inconclusive [inhibitor, single point]"
CCc1nonc1NC(=O)c1oc2ccc(C)cc2c1C,inactive: -16.2%,
CC(=O)N1CCc2ccc(O)c(OC3OC(COC4OCC(O)(CO)C4O)C(O)C(O)C3O)c2C1Cc1ccc(O)cc1 (stereo unspecified),inactive: 4.52% [at 20.6 µM],
CCOc1ccc2nc(N(Cc3cccnc3)C(=O)c3ccco3)sc2c1,inactive: -20.6%,
COc1cc(NS(=O)(=O)c2ccc(NC(=O)COc3ccc(Cl)cc3Cl)cc2)nc(OC)n1,,"inconclusive [inhibitor, partial curve, poor fit]"
O=C(Cn1c2ncccc2c(=O)n1-c1ccccc1)NCc1ccccc1,inactive: -8.25%,
Cc1ccc(NC(=O)c2ccc(F)c(S(=O)(=O)NCCc3ccccc3)c2)cc1F,,"inconclusive [inhibitor, partial curve, poor fit]"
Cc1nc(-c2ccccc2)sc1-c1ccc(SCC(=O)Nc2ccccc2)nn1,,"inconclusive [inhibitor, partial curve, poor fit]"
CCCCNC(=O)CN1CCN(c2ccc(NC(=O)c3ccc(OC)cc3)cc2C(=O)O)CC1,inactive: 8.15%,
CC(C)(CO)Cc1cc(C(C)(C)C)c(O)c(C(C)(C)C)c1,,"inconclusive [inhibitor, partial curve]"
COc1ccc(C)cc1NS(=O)(=O)c1ccc2c(c1)CCCN2C(C)=O,,"inconclusive [inhibitor, partial curve, poor fit]"
COc1ccc(-c2nc(SCC(=O)NCC3CCCO3)c(-c3ccc(C)cc3)[nH]2)cc1OC (stereo unspecified),,"inconclusive [inhibitor, single point]"
O=C(NCc1ccc(Cl)cc1)c1cc2cccc3c2n1CCS3,,"inconclusive [inhibitor, partial curve, poor fit]"
Cc1ccccc1CN1C(=O)C(O)(c2c[nH]c3ccccc23)c2cc(Cl)ccc21 (stereo unspecified),,"inconclusive [inhibitor, single point]"
COc1cc(C2c3c(-c4ccccc4O)n[nH]c3C(=O)N2Cc2ccncc2)cc(OC)c1OC (stereo unspecified),,"inconclusive [inhibitor, partial curve]"
CCN(CC)c1cc(NC2CCCCC2)c2c3c(onc13)-c1ccccc1C2=O,,"inconclusive [inhibitor, partial curve, poor fit]"
O=C(CS(=O)(=O)c1cccc2nsnc12)N1CCN(c2ccc(F)cc2)CC1,inactive: -11.5%,
CCCN1CCN(c2ncnc3sc(C(=O)Nc4ccc(OC(F)(F)F)cc4)c(C)c23)CC1,,"inconclusive [inhibitor, partial curve, poor fit]"
Cc1nnc(N2CCCC(C(=O)Nc3cc(F)ccc3F)C2)c2nn(-c3ccccc3)c(C)c12 (stereo unspecified),,"inconclusive [inhibitor, partial curve, poor fit]"
